{
  "source": "paper PMC8166750",
  "about": "(The Journal of Biological Chemistry, 2021)",
  "key": {"pdP2X7^D121A": {"target": "T1, pdP2X7^D121A (Ailuropoda melanoleuca, UniProt G1M6C4, D122A)", "T1 sequence (G1M6C4 2-606 D122A)": "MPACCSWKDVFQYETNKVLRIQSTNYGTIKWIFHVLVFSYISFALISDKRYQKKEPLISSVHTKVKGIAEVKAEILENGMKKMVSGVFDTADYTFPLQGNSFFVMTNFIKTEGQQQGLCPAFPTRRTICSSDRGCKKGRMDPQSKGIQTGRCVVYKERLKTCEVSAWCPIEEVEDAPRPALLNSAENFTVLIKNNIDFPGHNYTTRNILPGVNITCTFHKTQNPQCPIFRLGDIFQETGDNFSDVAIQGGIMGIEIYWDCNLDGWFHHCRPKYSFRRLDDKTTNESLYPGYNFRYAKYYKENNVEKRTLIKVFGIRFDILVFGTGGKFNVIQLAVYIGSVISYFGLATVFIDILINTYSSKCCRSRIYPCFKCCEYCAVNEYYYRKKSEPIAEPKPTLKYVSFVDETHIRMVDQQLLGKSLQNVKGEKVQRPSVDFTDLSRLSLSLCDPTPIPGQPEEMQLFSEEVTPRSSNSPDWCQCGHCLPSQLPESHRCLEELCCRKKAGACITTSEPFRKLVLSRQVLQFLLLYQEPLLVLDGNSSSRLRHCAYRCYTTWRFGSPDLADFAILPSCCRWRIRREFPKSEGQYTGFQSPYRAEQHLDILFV", "assay": "ATP concentration-response, perforated patch clamp in HEK293 cells", "assay_type": "cell-based, giant panda (Ailuropoda melanoleuca)", "settings": "pdP2X7^D121A"}, "hP2X1^E119A": {"target": "T2, hP2X1^E119A (Homo sapiens, UniProt P51575, E119A)", "T2 sequence (P51575 1-399 E119A)": "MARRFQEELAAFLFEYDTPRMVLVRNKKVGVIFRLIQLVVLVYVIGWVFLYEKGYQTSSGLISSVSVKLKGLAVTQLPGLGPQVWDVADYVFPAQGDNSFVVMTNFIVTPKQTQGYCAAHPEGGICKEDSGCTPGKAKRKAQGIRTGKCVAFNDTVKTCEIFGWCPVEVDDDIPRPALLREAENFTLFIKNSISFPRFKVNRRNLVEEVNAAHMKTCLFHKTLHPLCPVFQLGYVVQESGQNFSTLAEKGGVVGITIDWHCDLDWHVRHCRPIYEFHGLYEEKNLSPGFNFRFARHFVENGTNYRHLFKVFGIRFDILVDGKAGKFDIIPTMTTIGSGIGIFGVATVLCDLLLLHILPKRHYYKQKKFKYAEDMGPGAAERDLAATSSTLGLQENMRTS", "assay": "ATP concentration-response, perforated patch clamp in HEK293 cells", "assay_type": "cell-based"}, "zfP2X4^E121A": {"target": "T3, zfP2X4^E121A (Danio rerio, UniProt F8W463, E121A)", "T3 sequence (F8W463 1-389 E121A)": "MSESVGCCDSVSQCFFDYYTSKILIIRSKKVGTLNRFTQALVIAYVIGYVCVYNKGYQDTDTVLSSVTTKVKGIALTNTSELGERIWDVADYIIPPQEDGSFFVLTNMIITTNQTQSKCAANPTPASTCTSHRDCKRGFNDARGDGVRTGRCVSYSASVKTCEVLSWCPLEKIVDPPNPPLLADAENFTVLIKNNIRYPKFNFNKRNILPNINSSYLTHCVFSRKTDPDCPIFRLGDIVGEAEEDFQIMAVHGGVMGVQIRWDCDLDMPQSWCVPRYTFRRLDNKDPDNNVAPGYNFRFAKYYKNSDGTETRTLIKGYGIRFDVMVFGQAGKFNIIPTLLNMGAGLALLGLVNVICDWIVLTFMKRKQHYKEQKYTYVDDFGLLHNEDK"}},
  "data": [
    {"smiles": "Nc1ncnc2c1ncn2[C@@H]1O[C@H](COP(=O)(O)OP(=O)(O)OP(=O)(O)O)[C@@H](O)[C@H]1O", "note": "[ATP]", "values": [
      {"measurement": "nH (Hill coefficient) of ATP", "setting": "pdP2X7^D121A", "value": "1.53 ± 0.24"},
      {"measurement": "EC50", "setting": "hP2X1^E119A", "value": "0.92 ± 0.17", "unit": "µM"},
      {"measurement": "nH (Hill coefficient) of ATP", "setting": "hP2X1^E119A; hP2X1^E119A", "value": "1.46 ± 0.33"},
      {"measurement": "nH (Hill coefficient) of ATP", "setting": "zfP2X4^E121A", "value": "1.02 ± 0.18"}
    ]}
  ]
}
